Some of the results follow. At the low end of the ranking the order means little.

This assay deals with T1, GST-Rok-C97-191 (UniProt O34857).
T1 sequence: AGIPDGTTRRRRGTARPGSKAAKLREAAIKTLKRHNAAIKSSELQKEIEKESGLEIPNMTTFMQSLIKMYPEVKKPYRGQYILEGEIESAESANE
Briefly: protein binding microarray.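 Further: rank score from −0.5 (least bound) to 0.5 (best bound).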 The settings on record: Rok is a gene silencer of Bacillus subtilis; high values mean tight binding; most listed sequences are background and not binding sites; double strand, one strand shown.
In the case of AGTGACCA, the binding signal is -0.184 E-score.

As to AAAGAACT, the binding signal is 0.233 E-score.

CCTGTTCC returned a binding signal of -0.204 E-score.

Consider CCTACACC, for which the binding signal was -0.215 E-score.

For GCAGGCGC, the binding signal was -0.217 E-score.

ATACTCCA yielded a binding signal of 0.112 E-score.

In turn, GGCATATA showed a binding signal of 0.0304 E-score.

For the sequence CAATCTGA, the binding signal is -0.127 E-score.

Sequence AGTTATTA had a binding signal of 0.23 E-score.

Turning to CTCATGAC, the binding signal was -0.0988 E-score.

Sequence CATTATTC showed a binding signal of 0.188 E-score.

In turn, AAGTTGCA returned a binding signal of 0.0502 E-score.

Sequence GCGTTACC registered a binding signal of -0.112 E-score.

As for ACAGGGAG, the binding signal was -0.159 E-score.

As for CGTAATTA, the binding signal stood at 0.318 E-score.

Sequence TGCTTGAA yielded a binding signal of -0.109 E-score.

As to CTCCTGCA, the binding signal is -0.221 E-score.

In turn, CAGTTGCG displayed a binding signal of -0.153 E-score.

Turning to AGAGGACA, the binding signal is -0.102 E-score.

With ACGAAAAG, the binding signal was -0.151 E-score.

In turn, CACATGAC yielded a binding signal of -0.0896 E-score.

With CCGTTAAG, the binding signal was -0.0449 E-score.

As for TAACGGTA, the binding signal turned out to be 0.278 E-score.

Consider AAGGGTCG, for which the binding signal is -0.229 E-score.

For CGCTGAGA, the binding signal was -0.311 E-score.

Regarding ATTCCAAC, the binding signal stood at 0.0309 E-score.

AGATTAGG displayed a binding signal of 0.167 E-score.

The sequence CCGGGTCA returned a binding signal of -0.247 E-score.

TTACTGAA: the binding signal came to 0.144 E-score.

With ACCTGCAG, the binding signal was determined as 0.0473 E-score.

For the sequence CATCTTAA, the binding signal was determined as 0.184 E-score.

As to ATAGTGTA, the binding signal came to 0.346 E-score.

Regarding CATTTGGC, the binding signal is -0.0432 E-score.

Regarding TGCTCTAA, the binding signal is -0.0813 E-score.

GTCTACGA came in with a binding signal of -0.0769 E-score.

Sequence CTCTGTCC gave a binding signal of -0.234 E-score.

Take CTAGTCCC: the binding signal was -0.195 E-score.

As for TCTTAAAA, the binding signal is -0.0115 E-score.

As for AGCTATAG, the binding signal was 0.233 E-score.

For CTAACCTC, the binding signal was -0.0994 E-score.

For CCCGCTTC, the binding signal is -0.0653 E-score.

ATCGCGAG had a binding signal of -0.0109 E-score.

Sequence AGCGTTAC gave a binding signal of 0.0931 E-score.

With TACATAAA, the binding signal was determined as 0.301 E-score.

AATGGTAA: the binding signal was found to be 0.238 E-score.

Sequence AGCGTCCC gave a binding signal of -0.251 E-score.

On to AGCGCCTC, for which the binding signal was -0.208 E-score.

Take CCTTCAAC: the binding signal is -0.0251 E-score.

On to AACCATCA, for which the binding signal was -0.0117 E-score.

With GAGTCACC, the binding signal was -0.306 E-score.

Sequence CTGAGGCC registered a binding signal of -0.276 E-score.

Sequence AAACGATC returned a binding signal of 0.0409 E-score.

In the case of CGATATCG, the binding signal is 0.199 E-score.

Regarding ACTACGGG, the binding signal was -0.07 E-score.

Take TGATTAAA: the binding signal was -0.123 E-score.

Regarding AACCAGGC, the binding signal was -0.227 E-score.

In turn, AGGAGGAT registered a binding signal of -0.118 E-score.

CTCAATGC registered a binding signal of -0.173 E-score.

CCACGGGG gave a binding signal of -0.367 E-score.

Turning to AGATCCAC, the binding signal was -0.0974 E-score.

Take GGACAAAA: the binding signal is -0.0959 E-score.

The sequence AAGCGACC returned a binding signal of -0.151 E-score.

The sequence CCCTTATA displayed a binding signal of -0.162 E-score.

In turn, ACCCTGCG returned a binding signal of -0.261 E-score.

Consider CCAAAGCC, for which the binding signal was -0.289 E-score.

AAACGGAC gave a binding signal of -0.032 E-score.

Regarding AGGAGCAC, the binding signal was -0.222 E-score.

In turn, CAGAAATG showed a binding signal of -0.00219 E-score.

In turn, CTCTAGTA had a binding signal of 0.212 E-score.

In turn, AACGTATA gave a binding signal of 0.205 E-score.

Turning to ACGGAAGA, the binding signal is 0.0353 E-score.

With AGGCGAAG, the binding signal is -0.0998 E-score.

Take GTCAACTA: the binding signal turned out to be 0.0659 E-score.

CTGAGTTC displayed a binding signal of -0.188 E-score.

In turn, AACCTCCC gave a binding signal of -0.244 E-score.

As to CTGTCATA, the binding signal is -0.108 E-score.

On to CCGTTGCA, for which the binding signal was -0.0719 E-score.

Sequence CTTCAATC showed a binding signal of -0.121 E-score.

TGACTACA showed a binding signal of 0.031 E-score.

With AGAACTCT, the binding signal came out at 0.0863 E-score.

AAGGCAAT gave a binding signal of -0.0842 E-score.

CGCTAAGC: the binding signal is -0.17 E-score.

Sequence ACCCAGAA came in with a binding signal of -0.109 E-score.

In turn, GACGGCTA gave a binding signal of -0.221 E-score.

CAGCGCGG had a binding signal of -0.215 E-score.

In the case of CATTCGAA, the binding signal was 0.101 E-score.

As to TAAAAAGA, the binding signal turned out to be 0.152 E-score.

The sequence AATTACTG registered a binding signal of 0.253 E-score.

AGCACGAC registered a binding signal of -0.0405 E-score.

For AATAAAAG, the binding signal turned out to be 0.096 E-score.

ATTAACCC registered a binding signal of 0.00506 E-score.

Turning to CAAGACGG, the binding signal was -0.136 E-score.

For CTAGTACC, the binding signal was found to be 0.244 E-score.

In turn, ATCAACCC displayed a binding signal of -0.0743 E-score.

Turning to ACGGGGGG, the binding signal is -0.23 E-score.

In turn, AGCAATGC registered a binding signal of 0.0777 E-score.

In turn, GAGCGCCA registered a binding signal of -0.21 E-score.

ACCCCCTG had a binding signal of -0.261 E-score.

Turning to CCCGTGCG, the binding signal was -0.324 E-score.

The sequence CCACCAAC displayed a binding signal of -0.239 E-score.

AATAAGTA had a binding signal of 0.273 E-score.

The sequence GATAAACC had a binding signal of 0.113 E-score.

As to CCAGACTC, the binding signal was -0.071 E-score.

Regarding ATGCCGGC, the binding signal is -0.3 E-score.

AACCGCAC showed a binding signal of -0.155 E-score.

GAGAAAAC showed a binding signal of 0.0044 E-score.

With GCTGAACC, the binding signal was -0.187 E-score.

For CGGAATAC, the binding signal was 0.103 E-score.

Turning to AATAAATT, the binding signal worked out at 0.282 E-score.

The sequence ATGATTCC had a binding signal of -0.0893 E-score.

Turning to AGGGGGAG, the binding signal was -0.243 E-score.

In the case of GTCCCGTA, the binding signal came out at 0.0986 E-score.

Take AAAATAGC: the binding signal stood at 0.21 E-score.

Consider GGCATGAA, for which the binding signal is 0.0205 E-score.

In turn, AATTCACG showed a binding signal of 0.127 E-score.

GCAACAGA had a binding signal of -0.0918 E-score.

With CAGGCCGA, the binding signal is -0.165 E-score.

On to GCGAACCA, for which the binding signal was -0.221 E-score.

As for CCAGAGCG, the binding signal was -0.288 E-score.

CAGTCTAC returned a binding signal of 0.0696 E-score.

In turn, ATCTGAAG showed a binding signal of -0.267 E-score.

With CGCCAGTC, the binding signal was -0.225 E-score.

Take CGCACAAG: the binding signal was -0.271 E-score.

In the case of ACCCGGCT, the binding signal is -0.0887 E-score.

With CCTCCTCC, the binding signal is -0.437 E-score.

Regarding CCAATCTA, the binding signal was found to be 0.316 E-score.

On to AGCCATTG, for which the binding signal is -0.0954 E-score.

As for GCTAAAGA, the binding signal amounted to 0.0226 E-score.

Take ATGCAGGC: the binding signal is -0.0839 E-score.

Turning to GCTGATTA, the binding signal stood at 0.0269 E-score.

With ACTTGCCT, the binding signal is -0.03 E-score.

In the case of CGAGGATA, the binding signal was -0.0625 E-score.

CTGTACTC gave a binding signal of 0.0566 E-score.

As for CAGTATGC, the binding signal was -0.144 E-score.

For the sequence ACAACTTA, the binding signal is 0.152 E-score.

The sequence CTCTCCAC returned a binding signal of -0.106 E-score.

As to AATTTACG, the binding signal was determined as 0.338 E-score.

In turn, ATATCTCG displayed a binding signal of 0.199 E-score.

TGAAACAA: the binding signal was -0.122 E-score.

AACTTCTC came in with a binding signal of 0.117 E-score.

AAATGACG registered a binding signal of -0.0261 E-score.

Regarding CTTGAGGA, the binding signal was 0.0216 E-score.

Consider GACCAGTC, for which the binding signal was -0.116 E-score.

The sequence CTTGTGTC displayed a binding signal of -0.132 E-score.

As for GATTACGA, the binding signal was 0.0379 E-score.

Consider AAAATGCC, for which the binding signal worked out at 0.176 E-score.

Regarding AAAGCCTT, the binding signal is -0.215 E-score.

CCATAAGA displayed a binding signal of 0.104 E-score.

In the case of TTCCACAA, the binding signal is -0.0623 E-score.

Sequence GCTACCCC registered a binding signal of 0.0676 E-score.

AGTCTAGA returned a binding signal of 0.011 E-score.

AGGCGCGG displayed a binding signal of -0.328 E-score.

As to CACTTGGG, the binding signal was -0.0774 E-score.

GAGACAGA came in with a binding signal of -0.199 E-score.

As to ATCTTATA, the binding signal was determined as 0.286 E-score.

AAAAGGCA came in with a binding signal of -0.0386 E-score.

In turn, CCTATGGC yielded a binding signal of -0.202 E-score.

As to CAGAAAAA, the binding signal is -0.311 E-score.

Sequence GTCCCAGA returned a binding signal of -0.0942 E-score.

With CACTGGCA, the binding signal was -0.312 E-score.

The sequence AGAGCTAC displayed a binding signal of 0.0603 E-score.

The sequence AGATGCAC showed a binding signal of -0.113 E-score.

As to CCGATATC, the binding signal was determined as 0.0718 E-score.

The sequence AAATCCTA displayed a binding signal of 0.128 E-score.

In the case of AATCTTAG, the binding signal was 0.144 E-score.

For AGCTGGAT, the binding signal is 0.0164 E-score.

In turn, GCCACTCC had a binding signal of -0.161 E-score.

In the case of CTACATTA, the binding signal came to 0.245 E-score.

ATCTACCG had a binding signal of 0.394 E-score.

CGTCCCTA showed a binding signal of -0.187 E-score.

Sequence CTGCTCGC had a binding signal of -0.129 E-score.

On to CAGAAAGG, for which the binding signal was -0.223 E-score.

For the origin of these results see PMC6212790.
